We go through 22 molecules from publication PMC12136788.

The labels stand for the following.
T1: UNK ZnF1-6 (called full-length) (human, UniProt Q9C0B0 30-357)
T1 sequence: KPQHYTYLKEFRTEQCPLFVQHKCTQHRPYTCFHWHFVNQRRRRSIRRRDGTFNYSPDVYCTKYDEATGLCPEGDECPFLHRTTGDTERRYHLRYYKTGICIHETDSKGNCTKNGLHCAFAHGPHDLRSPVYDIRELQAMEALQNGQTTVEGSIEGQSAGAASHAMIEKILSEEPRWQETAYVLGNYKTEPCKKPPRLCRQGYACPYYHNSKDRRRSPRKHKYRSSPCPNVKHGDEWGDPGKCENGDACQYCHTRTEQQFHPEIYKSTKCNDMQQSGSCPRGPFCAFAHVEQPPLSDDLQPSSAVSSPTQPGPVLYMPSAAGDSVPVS

B1: chr4:70820284:70820384:-|3pUTR|ENSG00000132463|msi1_unk|FALSE|overlapping (ssRNA)
RNA: GGGAGUUCUACAGUCCGACGAUCUGAACUGGUAUGGUUUGGCAGAAUAGUUUUAAAUUUUGCUGUAUUUGAUUACUUAGAGAUAGGAAUUUUUAAAAAUCAAAACAAAAAAUACCACAGCUUAGUGUAAAUGACAAUUUGGCGCAACAGAGGAUUGAGCAUCA
B2: chr4:123402332:123402450:+|CDS|ENSG00000164056|unk|FALSE|unique (ssRNA)
RNA: GGGAGUUCUACAGUCCGACGAUCGACGAAGGGGAUUCCUAUUCAGAUAAUCCUUGCUCCUGUUCACAAUCACACUGCUGCUCUAGAUACCUGUGUAUGGGAGCCAUGUCUUUAUUUUUACCUUGCUUACUCUGUUAUCCUCCUCAACAGAGGAUUGAGCAUCA
B3: chr1:17068045:17068226:-|3pUTR|ENSG00000117115|msi1|total|mutant (ssRNA)
RNA: GGGAGUUCUACAGUCCGACGAUCCUCCUUCCACUGCCUUGACUUUCUUCCUUUUUAUUCCUGGUGCCAUCUGUCCAGGCAGCCCGACAAGAACUUGUUCGCCAGCAGCCAGAUUCAGGCCUUCCCAGGGGCAUAAUAAGUGACCAACAGAGGAUUGAGCAUCA
B4: chr7:149003559:149003660:-|3pUTR|ENSG00000155660|msi1|total|mutant (ssRNA)
RNA: GGGAGUUCUACAGUCCGACGAUCUUUUAUACUUUGGUGUUUCACUUCAUGCUCUGAAUACUGAAUAACCAUGAAUGACUGAACCGUUCCGUCCAGAUUUUUACAGAGGAUACAUCUAUUUUUAUCAUUAUUUGGGGUUUGAAACAACAGAGGAUUGAGCAUCA
B5: ENSG00000124766:be:win_301|CDS|ENSG00000124766|bound_else_gene|NA|bound_elsewhere_windowed (ssRNA)
RNA: GGGAGUUCUACAGUCCGACGAUCAAAGACAGCGACAAGAUCCCUUUCAUUCGAGAGGCGGAGCGGCUGCGCCUCAAGCACAUGGCUGACUACCCCGACUACAAGUACCGGCCCAGGAAGAAGGUGAAGUCCGGCAACGCCAACCAACAGAGGAUUGAGCAUCA
B6: chr15:38488102:38490688:-|three_prime_utr|ENSG00000172575|control|control|control (ssRNA)
RNA: GGGAGUUCUACAGUCCGACGAUCUACUCUGAAAGCAGAUAAUGAUGCCCUAAAGAUCCAACUGAAAUAUGCACAGAAGAAAAUAGAAUCCCUCCAGCUUGAAAAAAGCAAUCAUGUCUUAGCUCAAAUGGAGCAGGGUGACUGCAACAGAGGAUUGAGCAUCA
B7: chr10:128108355:128108456:-|CDS|ENSG00000148773|msi1|FALSE|unique (ssRNA)
RNA: GGGAGUUCUACAGUCCGACGAUCAGUGGACACUCCAACAAGCACAAAGCAAUGGCCUAAGAGAAGUCUCAGGAAAGCAGAUGUAGAGGAAGAAUUCUUAGCACUCAGGAAACUAACACCAUCAGCAGGGAAAGCCAUGCUUACCAACAGAGGAUUGAGCAUCA
B8: chr7:5527443:5527567:-|3pUTR|ENSG00000075624|msi1_unk|total|mutant (ssRNA)
RNA: GGGAGUUCUACAGUCCGACGAUCCAUCCCCCAAAGUUCACAAUGUGGCCGAGGACUUUGAUUGCACAUUGUUGUUUUUUUAACCGUCAUUCCAAAUAUGAGAUGCGUUGUUACAGGAAGUCCCUUGCCAUCCUAAAAGCCACCCAACAGAGGAUUGAGCAUCA
B9: chr22:35662008:35662068:+|3pUTR|ENSG00000221963|msi1_unk|FALSE|overlapping (ssRNA)
RNA: GGGAGUUCUACAGUCCGACGAUCUGAGCAACUUUUAAUUAUUCUCCUGUCCUGCAAUAUGAGUUAAUCUUCUCUGAUCGAUGUAGAUUCCAGGAAGGGGUGUCCAGGACAAUUACCUUCCUUCUGGAGAAACUUCCCUUAAUCCAACAGAGGAUUGAGCAUCA
B10: chr3:197282668:197282805:-|CDS|ENSG00000075711|msi1|total|mutant (ssRNA)
RNA: GGGAGUUCUACAGUCCGACGAUCUGGGAGAUUUCCAGCCUUCCAAGCUCUACUGUGACUUCAGAGACACUGCCAAGCAGCCUCCGCCCCCGUGCCGAGGUGAGAUAAAAAAUGUGUUCUGAAGCUGUUUUUUGGUGAUCAAUUCAACAGAGGAUUGAGCAUCA
B11: chr3:170392585:170392686:+|3pUTR|ENSG00000136603|msi1|total|mutant (ssRNA)
RNA: GGGAGUUCUACAGUCCGACGAUCUACAUUUUCCAAAUGAAUGAAAAUGUAUGUUUCUUUGUACUUUUUUAAAAAAAUCAGCUCCGUAACAAUACUAUAUGGUUUCAACCCGCCGGUAAUCUGCUUAUAUUUCUAAUGCAAACUCAACAGAGGAUUGAGCAUCA
B12: ENSG00000136451:be:win_4101|3pUTR|ENSG00000136451|bound_else_gene|NA|bound_elsewhere_windowed (ssRNA)
RNA: GGGAGUUCUACAGUCCGACGAUCGUCUUGGAACUGGAAUUGAGUUUCGAUGUUGAUGAACUGAUUCAACCAGGUGUUGAAGGCACGACAGCCACUGCUCUACGAAAAGGCAGAGUACGUUUUUCCCUUCUGGUUGUAACCUGGCAACAGAGGAUUGAGCAUCA
B13: chr4:76435395:76435496:+|5pUTR|ENSG00000138771|msi1|total|mutant (ssRNA)
RNA: GGGAGUUCUACAGUCCGACGAUCUUUUCUCUCCUAAGAAACAAACUAUGAACUGAUUGUUGAAAAAAAGAAGUAAAAAGUUUCCGCACAGCUUCUCUGUCUCUUCGGGACAAGUCCGAAAAUUCUGAAGUGAGCCGAAGCAUACAACAGAGGAUUGAGCAUCA
B14: chr11:18297563:18297669:-|CDS|ENSG00000110756|unk|FALSE|unique (ssRNA)
RNA: GGGAGUUCUACAGUCCGACGAUCGAUCUAAUUUCUCAACUGGAAGAAUUGAUCUUAAAAUUUGAACCUUUGGAUUCAGCUUGUAGCAGUAGAAGAAGCUCCAUUUCAUCACAUGUAAGUAUUCUCACCUUUAAAGGAUUUUGUCAACAGAGGAUUGAGCAUCA
B15: chr2:182777146:182777247:+|3pUTR|ENSG00000077232|msi1|total|mutant (ssRNA)
RNA: GGGAGUUCUACAGUCCGACGAUCUGAAGAUGAAGAAAAAGUUUAAAAGAAAUUCUGACAGAUGACAUCAGAAGACACCUAUUCCGAAUGUUACAUUUAUGAUGGGAAUGAAUGAACAUUAUCUCCGACUUGCAGUUGUACUGCCAACAGAGGAUUGAGCAUCA
B16: chr22:35662008:35662068:+|3pUTR|ENSG00000221963|msi1_unk|total|mutant (ssRNA)
RNA: B9 RNA with U83C, A84C
B17: chr1:109313209:109313310:-|3pUTR|ENSG00000134243|msi1|FALSE|unique (ssRNA)
RNA: GGGAGUUCUACAGUCCGACGAUCCAGGGCAAUAUUUUUAACUUGGGGCAGGAAGAAGGGAGCAGCAGAGAAUUGACUAGAUAUAGCACCUAUUAAAAGAGAACUCUUGCUUCUUCUGAGAUUUUUCAAGCUGUGCUUUGUGUGCAACAGAGGAUUGAGCAUCA
B18: chr6:125889563:125889680:+|CDS|ENSG00000111912|unk|FALSE|unique (ssRNA)
RNA: GGGAGUUCUACAGUCCGACGAUCCAAGCAGUCUGGUUCGCCAGAAAGCCGAGUAGAAAACACACUGAACAUACAUGAAGAUUUAGAUAAAGUUAAACUCAUUGAAUAUUACCUGACUAAGAACAAAGAAGGGCCACAGGUAUCCAACAGAGGAUUGAGCAUCA
B19: chr9:125437660:125437767:-|3pUTR|ENSG00000119487|unk|total|mutant (ssRNA)
RNA: GGGAGUUCUACAGUCCGACGAUCUGAUGUCCUUACUGUCCCCAGCCAGGGCCGGGGACCGGUGUUUCACUGAGGACCUGCAUCCGAAACAUUUUUUAAAUUGUUGUACAGGAAGAGAUGUGUCUAAAACAGCAUCUUAAAGCUCAACAGAGGAUUGAGCAUCA
B20: chr1:109062750:109062855:-|3pUTR|ENSG00000197780|unk|FALSE|unique (ssRNA)
RNA: GGGAGUUCUACAGUCCGACGAUCGCUUUCAGUAGCAGGAAUGGCAUUGUUUAAAAAGCUGAUGGCAGGGUAAGCAUUUGGGUUAGUGUUUUAUUAACAUAUUUGUAAGUACUUGUUCAUUGUGGAAAUGUGUCCUUGACUAAACAACAGAGGAUUGAGCAUCA
B21: chr9:69711526:69711627:-|3pUTR|ENSG00000188647|unk|total|mutant (ssRNA)
RNA: GGGAGUUCUACAGUCCGACGAUCGAACUGCUGCCGUCUUCUGCAAUCAGUCUCUGUAUUGGUAUAUCCAGUACUAUCGGGUUCCGGUUCUUUUUAUUUUUCCUUAAAUCUUACUUGUUUCCCGCGUCUUAAGAGUGGUAAUGGCAACAGAGGAUUGAGCAUCA
B22: chr14:22906194:22906368:-|CDS|ENSG00000100461|control|control|control (ssRNA)
RNA: GGGAGUUCUACAGUCCGACGAUCAGCCGAAGUCCAGGUCGGCAGUGUCGUCACCGUAGCCGUAGCUGGGAUCGUCGACAUGGUAGUGAGUCGCGAAGUCGGGACCAUCGUCGUGAGGAUCGUGUGCAUUACAGGAGUCCUCCACAACAGAGGAUUGAGCAUCA

Where a chain is given by its changes, count along the chain named. This is one part of the list.

This assay addresses T1, UNK ZnF1-6 (called full-length). The assay can be described thus: nsRBNS (natural sequence RNA bind-n-seq); RBNS binding buffer (assumed for nsRBNS): 25 mM Tris pH 7.5, 150 mM KCl, 3 mM MgCl2, 0.01% Triton X-100, 500 ug/ml BSA, 20 U/ml SUPERase-In, 4 C; UNK is unkempt and MSI1 is Musashi-1; names of the RNAs are library labels; protein concentration not given here; high values mean tight binding.
B1 came in with a binding signal of 1.68 enrichment R.

B2 gave a binding signal of 0.557 enrichment R.

B3 had a binding signal of 0.718 enrichment R.

B4 returned a binding signal of 0.574 enrichment R.

Molecule B5 displayed a binding signal of 0.734 enrichment R.

With B6, the binding signal is 0.685 enrichment R.

Regarding B7, the binding signal stood at 0.762 enrichment R.

B8 returned a binding signal of 0.534 enrichment R.

In turn, B9 yielded a binding signal of 0.37 enrichment R.

Consider B10, for which the binding signal came out at 0.513 enrichment R.

With B11, the binding signal was 0.408 enrichment R.

For the molecule B12, the binding signal is 0.558 enrichment R.

In turn, B13 registered a binding signal of 0.287 enrichment R.

In turn, B14 had a binding signal of 0.455 enrichment R.

Molecule B15 came in with a binding signal of 0.386 enrichment R.

Molecule B16 had a binding signal of 0.484 enrichment R.

Take B17: the binding signal was 1.32 enrichment R.

B18 gave a binding signal of 1.24 enrichment R.

In the case of B19, the binding signal amounted to 0.503 enrichment R.

Molecule B20 displayed a binding signal of 0.667 enrichment R.

In the case of B21, the binding signal was found to be 0.504 enrichment R.

As to B22, the binding signal was 1.13 enrichment R.
